# Laboratory results from the supplement of paper PMC8728848.
# The list shows a part of the results.
# B1: Tamarinin (protein)
# chain: CDDSARAGNIVVYWGQGGSDNSEGSLKEACKSGHYNMIVLQQLIVYDDGRDPDLNLGAHCSDCTKLEEQIKYCQNKDIKILLQIGQVVPTQEDVKDVTKNLSEYLLKNFFSGKSGPLGEVYLNGIDIASVPEGNNLKFDELVEALNDSSTERRIYLSASPLCVYPDYYLNKAIQTEKLDFLFVQFFYQNPCIYTEGNPENLFEAMKTWTKNVPESMIFMALPATPNLDGYIPPRVLNKEILPAVSEASNFAGVMIFDRYFDRFRKYSSKIK
# Assays:
# Assay in all cases: glycan array binding signal (z-score within array); higher = stronger binding
# Conditions in all cases: glycan notation: IUPAC condensed, linker removed
# [1] = target: Neu5Ac(a2-6)Gal(b1-4)GlcNAc(b1-2)Man(a1-3)[Man(a1-6)]Man(b1-4)GlcNAc(b1-4)GlcNAc
# Outline: (§1)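 Glycan array data were curated from 3228 arrays in the Consortium for Functional Glycomics database and kept only where the protein sequence was available. Glycan names were converted to IUPAC-condensed notation, and columns mapping to the same glycan were averaged. The binding signal is a within-array Z-score, averaged across arrays of the same protein sequence at different concentrations or buffers and across linkers. Negative Z-scores can be read as non-binding.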
# [2] = target: Neu5Ac(a2-6)Gal(b1-4)GlcNAc(b1-2)Man(a1-3)[Neu5Ac(a2-3)Gal(b1-4)GlcNAc(b1-2)Man(a1-6)]Man(b1-4)GlcNAc(b1-4)GlcNAc
# Outline: as §1
# [3] = target: Neu5Ac(a2-6)Gal(b1-4)GlcNAc(b1-2)Man(a1-3)[Neu5Ac(a2-6)Gal(b1-4)GlcNAc(b1-2)Man(a1-6)]Man(b1-4)GlcNAc(b1-4)GlcNAc
# Outline: as §1
# [4] = target: Neu5Ac(a2-6)Gal(b1-4)GlcNAc(b1-2)Man(a1-3)[Neu5Ac(a2-6)Gal(b1-4)GlcNAc(b1-2)Man(a1-6)]Man(b1-4)GlcNAc(b1-4)[Fuc(a1-6)]GlcNAc
# Outline: as §1
# [5] = target: Neu5Ac(a2-6)Gal(b1-4)GlcNAc(b1-2)Man(a1-6)Man(b1-4)GlcNAc(b1-4)GlcNAc
# Outline: as §1
# [6] = target: Neu5Ac(a2-6)Gal(b1-4)GlcNAc(b1-2)Man(a1-6)[Gal(b1-4)GlcNAc(b1-2)Man(a1-3)]Man(b1-4)GlcNAc(b1-4)GlcNAc
# Outline: as §1
# [7] = target: Neu5Ac(a2-6)Gal(b1-4)GlcNAc(b1-2)Man(a1-6)[GlcNAc(b1-2)Man(a1-3)]Man(b1-4)GlcNAc(b1-4)GlcNAc
# Outline: as §1
# [8] = target: Neu5Ac(a2-6)Gal(b1-4)GlcNAc(b1-2)Man(a1-6)[Man(a1-3)]Man(b1-4)GlcNAc(b1-4)GlcNAc
# Outline: as §1
# [9] = target: Neu5Ac(a2-6)Gal(b1-4)GlcNAc(b1-2)[Neu5Ac(a2-6)Gal(b1-4)GlcNAc(b1-4)]Man(a1-3)[GlcNAc(b1-4)][Neu5Ac(a2-6)Gal(b1-4)GlcNAc(b1-2)[Neu5Ac(a2-6)Gal(b1-4)GlcNAc(b1-6)]Man(a1-6)]Man(b1-4)GlcNAc(b1-4)GlcNAc
# Outline: as §1
# [10] = target: Neu5Ac(a2-6)Gal(b1-4)GlcNAc(b1-2)[Neu5Ac(a2-6)Gal(b1-4)GlcNAc(b1-4)]Man(a1-3)[GlcNAc(b1-4)][Neu5Ac(a2-6)Gal(b1-4)GlcNAc(b1-4)Man(a1-6)]Man(b1-4)GlcNAc(b1-4)GlcNAc
# Outline: as §1
# [11] = target: Neu5Ac(a2-6)Gal(b1-4)GlcNAc(b1-2)[Neu5Ac(a2-6)Gal(b1-4)GlcNAc(b1-6)]Man(a1-6)[Neu5Ac(a2-6)Gal(b1-4)GlcNAc(b1-2)Man(a1-3)][GlcNAc(b1-4)]Man(b1-4)GlcNAc(b1-4)GlcNAc
# Outline: as §1
# [12] = target: Neu5Ac(a2-6)Gal(b1-4)GlcNAc(b1-3)Gal(b1-3)GlcNAc
# Outline: as §1
# [13] = target: Neu5Ac(a2-6)Gal(b1-4)GlcNAc(b1-3)Gal(b1-4)GlcNAc
# Outline: as §1
# [14] = target: Neu5Ac(a2-6)Gal(b1-4)GlcNAc(b1-3)Gal(b1-4)GlcNAc(b1-2)Man(a1-3)[Neu5Ac(a2-6)Gal(b1-4)GlcNAc(b1-3)Gal(b1-4)GlcNAc(b1-2)Man(a1-6)]GalNAc
# Outline: as §1
# [15] = target: Neu5Ac(a2-6)Gal(b1-4)GlcNAc(b1-3)Gal(b1-4)GlcNAc(b1-3)Gal(b1-4)GlcNAc
# Outline: as §1
# [16] = target: Neu5Ac(a2-6)Gal(b1-4)GlcNAc(b1-3)Gal(b1-4)GlcNAc(b1-3)Gal(b1-4)GlcNAc(b1-2)Man(a1-3)[Neu5Ac(a2-6)Gal(b1-4)GlcNAc(b1-3)Gal(b1-4)GlcNAc(b1-3)Gal(b1-4)GlcNAc(b1-2)Man(a1-6)]GalNAc
# Outline: as §1
# [17] = target: Neu5Ac(a2-6)Gal(b1-4)GlcNAc(b1-3)Gal(b1-4)GlcNAc(b1-3)GalNAc
# Outline: as §1
# [18] = target: Neu5Ac(a2-6)Gal(b1-4)GlcNAc(b1-3)Gal(b1-4)GlcNAc(b1-3)[Neu5Ac(a2-6)Gal(b1-4)GlcNAc(b1-3)Gal(b1-4)GlcNAc(b1-6)]GalNAc
# Outline: as §1
# [19] = target: Neu5Ac(a2-6)Gal(b1-4)GlcNAc(b1-3)Gal(b1-4)GlcNAc(b1-6)[Gal(b1-3)]GalNAc
# Outline: as §1
# [20] = target: Neu5Ac(a2-6)Gal(b1-4)GlcNAc(b1-3)Gal(b1-4)[Fuc(a1-3)]GlcNAc(b1-3)Gal(b1-4)[Fuc(a1-3)]GlcNAc
# Outline: as §1
# [21] = target: Neu5Ac(a2-6)Gal(b1-4)GlcNAc(b1-3)GalNAc
# Outline: as §1
# [22] = target: Neu5Ac(a2-6)Gal(b1-4)GlcNAc(b1-3)[Neu5Ac(a2-6)Gal(b1-4)GlcNAc(b1-6)]GalNAc
# Outline: as §1
# [23] = target: Neu5Ac(a2-6)Gal(b1-4)GlcNAc(b1-6)GalNAc
# Outline: as §1
# [24] = target: Neu5Ac(a2-6)Gal(b1-4)GlcNAc(b1-6)[Gal(b1-3)GlcNAc(b1-3)]Gal(b1-4)Glc
# Outline: as §1
# [25] = target: Neu5Ac(a2-6)Gal(b1-4)GlcNAc(b1-6)[Gal(b1-3)]GalNAc
# Outline: as §1
# [26] = target: Neu5Ac(a2-6)Gal(b1-4)GlcNAc6S
# Outline: as §1
# Neu5Ac(a2-6)GalNAc = target: Neu5Ac(a2-6)GalNAc
# Outline: as §1
# [27] = target: Neu5Ac(a2-6)GalNAc(b1-4)GlcNAc
# Outline: as §1
# [28] = target: Neu5Ac(a2-6)GalNAc(b1-4)GlcNAc6S
# Outline: as §1
# [29] = target: Neu5Ac(a2-6)GlcNAc(b1-4)GlcNAc
# Outline: as §1
# [30] = target: Neu5Ac(a2-6)GlcNAc(b1-4)GlcNAc(b1-4)GlcNAc
# Outline: as §1
binder,measurement,setting,value
B1,glycan array binding signal (z-score),[1],-0.175
same,glycan array binding signal (z-score),[2],-0.271
same,glycan array binding signal (z-score),[3],-0.443
same,glycan array binding signal (z-score),[4],-0.131
same,glycan array binding signal (z-score),[5],-0.404
same,glycan array binding signal (z-score),[6],-0.424
same,glycan array binding signal (z-score),[7],-0.377
same,glycan array binding signal (z-score),[8],-0.41
same,glycan array binding signal (z-score),[9],-0.493
same,glycan array binding signal (z-score),[10],-0.936
same,glycan array binding signal (z-score),[11],-0.384
same,glycan array binding signal (z-score),[12],-0.332
same,glycan array binding signal (z-score),[13],-0.312
same,glycan array binding signal (z-score),[14],-0.51
same,glycan array binding signal (z-score),[15],-0.331
same,glycan array binding signal (z-score),[16],-0.094
same,glycan array binding signal (z-score),[17],-0.332
same,glycan array binding signal (z-score),[18],-0.119
same,glycan array binding signal (z-score),[19],-0.385
same,glycan array binding signal (z-score),[20],-0.351
same,glycan array binding signal (z-score),[21],5.41
same,glycan array binding signal (z-score),[22],0.766
same,glycan array binding signal (z-score),[23],0.201
same,glycan array binding signal (z-score),[24],-0.361
same,glycan array binding signal (z-score),[25],-0.138
same,glycan array binding signal (z-score),[26],-0.131
same,glycan array binding signal (z-score),Neu5Ac(a2-6)GalNAc,-0.194
same,glycan array binding signal (z-score),[27],-0.467
same,glycan array binding signal (z-score),[28],0.087
same,glycan array binding signal (z-score),[29],-0.402
same,glycan array binding signal (z-score),[30],-0.322
